This note sets out measurements from US20180273604A1 (ALBERT EINSTEIN COLLEGE OF MEDICINE, published 2018).

Assay [1] concerns the target T1, ICOS-L, human, expressed on HEK 293 cells (human, UniProt O75144 19-302).
T1 construct: whole, on cells; Expressed as GFP or mCherry fusion; Library form: ectodomain on the mouse PD-L1 transmembrane segment with GFP; also called Human ICOS-L
T1 sequence (looked up): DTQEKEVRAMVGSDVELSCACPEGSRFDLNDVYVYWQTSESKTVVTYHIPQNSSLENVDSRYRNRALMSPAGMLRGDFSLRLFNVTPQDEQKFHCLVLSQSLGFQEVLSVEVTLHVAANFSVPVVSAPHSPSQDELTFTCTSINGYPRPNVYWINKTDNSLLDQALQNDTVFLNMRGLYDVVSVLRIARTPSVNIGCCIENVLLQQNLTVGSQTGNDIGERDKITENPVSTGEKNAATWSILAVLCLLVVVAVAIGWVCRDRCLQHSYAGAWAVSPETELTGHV
In words: cell-cell FACS screen, ICOS-L query cells vs GFP library cells.

Assay [2] deals with T2, ICOS-L Fc-fusion protein (soluble, purified) (human, UniProt O75144 19-256, limits assumed).
T2 construct: Expressed in HEK 293 cells, purified by Ni2+-NTA and gel filtration; Used soluble or on protein A microbeads; also called ICOS-L Fc (IgG2a); ICOS-L mIgG2a
T2 sequence (looked up): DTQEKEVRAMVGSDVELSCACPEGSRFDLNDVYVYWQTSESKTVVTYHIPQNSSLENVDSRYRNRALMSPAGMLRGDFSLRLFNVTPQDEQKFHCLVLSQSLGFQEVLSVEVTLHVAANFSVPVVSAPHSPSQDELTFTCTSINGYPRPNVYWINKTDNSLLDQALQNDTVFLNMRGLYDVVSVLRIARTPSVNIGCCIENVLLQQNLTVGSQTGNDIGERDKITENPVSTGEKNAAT
In words: competition: ICOS-L-coated microbeads on CTLA-4 or CD28 cells with increasing ENBREL, flow cytometry. For orientation: A flow cytometer gives signals particle by particle.

B1: CTLA-4, human, expressed on cells (receptor)
chain: not shown
notes: whole, on cells; GFP fusion in the library (ectodomain on mouse PD-L1 transmembrane segment)
With B1, the binding result in assay [1] is listed as “binds”.

B2: CD28, human, expressed on cells (receptor)
chain: not shown
notes: as for B1
On to B2, for which the binding result in assay [1] is on record as “binds”.

B3: ENBREL® (etanercept), fusion of TNFR-1B to IgG1 Fc (Fc fusion)
chain: LPAQVAFTPYAPEPGSTCRLREYYDQTAQMCCSKCSPGQHAKVFCTKTSDTVCDSCEDSTYTQLWNWVPECLSCGSRCSSDQVETQACTREQNRICTCRPGWYCALSKQEGCRLCAPLRKCRPGFGVARPGTETSDVVCKPCAPGTFSNTTSSTDICRPHQICNVVAIPGNASMDAVCTSTSPTRSMAPGAVHLPQPVSTRSQHTQPTPEPSTAPSTSFLLPMGPSPPAEGSTGD[… human IgG1 Fc …]
notes: Used soluble or coated on protein A microbeads; also called TNFR-1B Fc fusion; soluble TNFR-1B
For B3, the binding result in assay [2] is given as “binds”.
